The RNAGym collection of RNA variant scans (doi:10.7554/elife.90254)
The source gives no read counts; variants with many changes may rest on few reads.

B1: LINE1-full (parent)
chain: UACGUAGGUGGUUUUCCCCUGAUAGUGCUAAGGGGGCCUGGAAGUUUGGACUGGGCAGAGCUCAACACAGCGUGGCAAAGUGGCUGUGGCUAGACUGCCUCUCUGGAUUCCUCGUCACUCAGCAGGGCAUCUCUGAGAGAAAUGCC

Variants of: B1
Experiment: self-cleavage, relative activity (ratio to wild type); higher = more cleavage; in vitro, sequencing; the parent is a self-cleaving ribozyme
Variant A43G G60A U130C has a self-cleavage of 0.04. Work on A43G A121U C128U A142C yielded a self-cleavage of 1.27. In the case of A65C G97U U102C A107U, the self-cleavage is reported as 0.02. A24U A67U A79U U104C U119C U134C showed a self-cleavage of 0.9. Variant U39C U108A U130C has a self-cleavage of 0.71. With A59G U102C U104C A124U the self-cleavage was 1.06. Work on U5C U12G A79G U112C yielded a self-cleavage of 2.83. U20A U87C U108C showed a self-cleavage of 0. Work on U52C U134A A140G yielded a self-cleavage of 0.47. Work on A6G U39C G97A G127C yielded a self-cleavage of 0.23. In the case of U5C C38A U100C, the self-cleavage is reported as 1.39. Work on A67G U108A U115C yielded a self-cleavage of 0.37. Work on U47G A92G A121U yielded a self-cleavage of 0.18. U9A U12C G53A U130C showed a self-cleavage of 0.39. With A59U U109A C131U the self-cleavage was 1.16. In the case of U20A A30G A67U U85C, the self-cleavage is reported as 0.22. U23C A64U U130C A138G gave a self-cleavage of 1.12. A77G U102C U134C gave a self-cleavage of 2.69. With C19A U85A A129G the self-cleavage was 0.17. A24G A57G A64G gave a self-cleavage of 0.36. A57U U112C A141G showed a self-cleavage of 0. A69U U85C C113A A140G gave a self-cleavage of 0.03. In the case of A57G U112C A138G, the self-cleavage is reported as 0.62. For A6G A92U A94G U109C, the self-cleavage was 0.31. U96C U109C U112C A129U showed a self-cleavage of 0. With C19U A57G U104A the self-cleavage was 0.26. For G41U A94G A140G, the self-cleavage was 0.04. In the case of A30G A64U U132C, the self-cleavage is reported as 0.33. With U15C C84A U104C the self-cleavage was 0.13. G21A A69G A94U U115A C146U showed a self-cleavage of 0.23. For A65G U104C A107U A121U, the self-cleavage was 0.69. C3U A22G A121U showed a self-cleavage of 1.09. Variant G106U C123U A129G has a self-cleavage of 0. With A22U A94U A121C the self-cleavage was 0.41. Work on U12C C38A G58U yielded a self-cleavage of 0.08. U29C A42G U62C A78G G82A U96C U104A A136G A140G gave a self-cleavage of 0. For U23C U47C U52C A59G C116U, the self-cleavage was 0.51. Work on U23C A65G A78G U119A yielded a self-cleavage of 0.19. In the case of U52A C56U C68A A77U, the self-cleavage is reported as 0.04. U62C A64U U104C U134A A140G A142G gave a self-cleavage of 0. With C19U U26C A67G the self-cleavage was 0.29. Variant U5C U9A C19U A22G has a self-cleavage of 0.84. A77G U102C G114U gave a self-cleavage of 2.84. For U13C U15C U112A, the self-cleavage was 1.74. C56A A67G A92G showed a self-cleavage of 0.18. For U46C A92G A107G U132C, the self-cleavage was 0. With A78G G86A U87C the self-cleavage was 0.17. Variant U12C U26A U102C U104C A141G has a self-cleavage of 0.45. With U47C U119A A141G the self-cleavage was 1.69. Work on A42G G70A A107G U132C U134A yielded a self-cleavage of 0.01. With U13C U132C A138G the self-cleavage was 1.3. With U12C U91C A107U the self-cleavage was 1.15. C37U U100C A138G showed a self-cleavage of 2.59. Variant U23A A69U A94G A129G has a self-cleavage of 0. For U12C G74A U91C, the self-cleavage was 0.91. Work on U13C U26A U100G A141G yielded a self-cleavage of 0.67. Variant U52A U62C U108C has a self-cleavage of 0. For U15A C19U U115C U119C, the self-cleavage was 1.77. A69G U108C A129C A140G showed a self-cleavage of 0. Work on A79G U81A U87A A107G U108A yielded a self-cleavage of 0.23. A22G U96C U102C U112C A138U gave a self-cleavage of 0. A22G A30U U52C gave a self-cleavage of 0.42. Work on U14C U85G U104C A121C yielded a self-cleavage of 0. Work on U39C C71U U134C A140G yielded a self-cleavage of 0. With U15C U91A A94G U130C C131U A140G the self-cleavage was 0.38. Work on U12C A43G U52C U109C yielded a self-cleavage of 1.02. In the case of C71U A79U A129G A142G, the self-cleavage is reported as 0.73. With A6G U62C C131U the self-cleavage was 0. Work on U62A G80A U85C C95U U104C yielded a self-cleavage of 0.01. A79U U108C U115C A136U gave a self-cleavage of 2.17. A42G A57G U130A gave a self-cleavage of 1.29. With U5A U85A U143A the self-cleavage was 0.12. In the case of A22G A65U A142G, the self-cleavage is reported as 0.45. U45C A94G U96A U104C showed a self-cleavage of 0. U39C A59U G97A U119C gave a self-cleavage of 0.21. U39C U46C U52C A77U U91C A141G showed a self-cleavage of 0. With U15C A24G A43G U102A the self-cleavage was 2.14. Work on U20C U29C A79G U132A U143C yielded a self-cleavage of 1.25. With U13C A43U U73C the self-cleavage was 1.26. In the case of A92G U104C U115C, the self-cleavage is reported as 0. G21A U26A A121G showed a self-cleavage of 1.31. Work on A42G A64G A138U yielded a self-cleavage of 0.42. Work on A57G C84G U85C yielded a self-cleavage of 0.14. Variant U13C U45C U109A A124G has a self-cleavage of 0.87. Work on A65G U104G A124U yielded a self-cleavage of 0. With U1C U12C A31G C51U the self-cleavage was 1.17. Variant G44A G89A C116A has a self-cleavage of 0.07. For A24U A64G U85A U115A, the self-cleavage was 0. Variant U47C A64U A79U has a self-cleavage of 1.09. U119A A121G U132A gave a self-cleavage of 2.04. A6G A50G A77U A94G C101A A136G showed a self-cleavage of 0.61. U1A C38U U73C gave a self-cleavage of 0.61. U14C U52A U62C A78G gave a self-cleavage of 0. With A6G U13A A42G A57G the self-cleavage was 1.1. U13C G27A U47G A92U gave a self-cleavage of 0.26. U12C U20C G34A G49A showed a self-cleavage of 1.16. U5C U9A G21A C61U showed a self-cleavage of 0.21. For A50G A92U A136U, the self-cleavage was 0.98. With U104A C118U U132C A138U A141G the self-cleavage was 2.73. A57G C66U C145U gave a self-cleavage of 0.02. Work on C19U A69G C90U U109C U115A U119C yielded a self-cleavage of 0. G4A C76U A121G U143C gave a self-cleavage of 2.93. Variant U20A U85C U119A has a self-cleavage of 0.28. Work on U5C G75A U87A U96C A136G yielded a self-cleavage of 0. A57G U102C A129G gave a self-cleavage of 0.72. C3U U47A A77G gave a self-cleavage of 1.62. Variant U14A A77U A79U U112C G125U A141G has a self-cleavage of 2.11. For A31U A79G U112A, the self-cleavage was 1.11. Work on A2G A77G U130C A142C yielded a self-cleavage of 0.92. Work on A22U A67G U91C yielded a self-cleavage of 0.16. In the case of A43G A59U C113U U132C, the self-cleavage is reported as 0.83. U46C A78G U112C showed a self-cleavage of 1.26. In the case of C18A C103A U104C, the self-cleavage is reported as 1.06. For U9C G74A A141G, the self-cleavage was 0.58. In the case of A57C G82A U100C, the self-cleavage is reported as 0.07. Variant G8U U20A U26C A43G A79G A142G C145A has a self-cleavage of 2.12. With C3G A22U A124G the self-cleavage was 0.92. A42C U73A U81A A124C showed a self-cleavage of 1.47. A22U A59G A138G gave a self-cleavage of 0.21. Variant U23G C66U A140G has a self-cleavage of 0.06. Variant U26C A30U A124G has a self-cleavage of 1.21. For U39A A50G U73C A77U U104A A140G, the self-cleavage was 0.58. For C37U U62A C98U A121G, the self-cleavage was 0.04. For U1C A24G U47C A129U, the self-cleavage was 0.92. In the case of U5C U112C G122U A140G U143C, the self-cleavage is reported as 0.78. U87C A121G C146U showed a self-cleavage of 0. Work on U14A A57U U62C yielded a self-cleavage of 0.09. In the case of C76U A77U U112A, the self-cleavage is reported as 2.14. With G55A G75U U87C U109G A124G A138G the self-cleavage was 0. For U12C A57G G106A A142G, the self-cleavage was 1.14. For G34A A50G A78G U112C, the self-cleavage was 0.29. With A50G A79U A142G the self-cleavage was 1.17. For A59G A107U A129G, the self-cleavage was 0.17. For U14C C56U U130A A140G, the self-cleavage was 0.13. Work on A2U U29C U62C yielded a self-cleavage of 0. U39C A78G A117U showed a self-cleavage of 1.19. With U115C U134A U143A the self-cleavage was 1.02. G105A U112C A138G gave a self-cleavage of 1.66. U5C U23A G32A C99U U104A A136U showed a self-cleavage of 0.47. For U9C G27A U29C, the self-cleavage was 1.58. With U14A G27A U100C U104A the self-cleavage was 1.41. For U9C G48A U130C, the self-cleavage was 1.64. A31G G34A G106A U112C gave a self-cleavage of 1.38. Variant A50U U87C C90U has a self-cleavage of 0.05. C37U U73C U81A U104C A121C A124U showed a self-cleavage of 2.42. Work on G48A A50G U104C A136U yielded a self-cleavage of 1.99. U12C U62A U85C showed a self-cleavage of 0.1. A22G U85A U87A U130A gave a self-cleavage of 0.07. For U13C U23C U46C U87A, the self-cleavage was 0.3. C17G A65C A79G showed a self-cleavage of 0.31. With U39C A92U G93A the self-cleavage was 0.04. Variant U91C A117G G125A has a self-cleavage of 0.71. For U1C U46A A140G A141G, the self-cleavage was 0.83. In the case of C68U A129G A141G, the self-cleavage is reported as 0.12. In the case of U1A U14C A50G C71U A124G, the self-cleavage is reported as 0.09. With A31U U96A A121U the self-cleavage was 0.09. Work on U52C U108C U143C yielded a self-cleavage of 2.04. With U15C U20C U132A the self-cleavage was 1.75. In the case of U1C G4A U13C C120U A140U, the self-cleavage is reported as 1.3. Variant U9C U52C U62A A79G A142G has a self-cleavage of 0.09. In the case of U12A A65G U100C C110A U132C, the self-cleavage is reported as 0.18. Variant U14C A67G U130C A141G has a self-cleavage of 0. For U5C C51A U62C C146U, the self-cleavage was 0.2. U9C U12C A129C showed a self-cleavage of 1.28. Variant U46C G53A G83A has a self-cleavage of 0.14. With U12A U47C U85C A138G U143C the self-cleavage was 0.38. U47C A121G G126A showed a self-cleavage of 0.77.
